Results reported in PMC12965331 (Biochemistry, 2025).

Tests used:
[1] = target: T1, NSP14 MTase (Severe acute respiratory syndrome coronavirus 2, UniProt P0DTD1); details: cited from earlier work; for activity toward NSP14 MTase: HTRF screen of 5,000 pharmaceutical compounds; for EC50: read-out: reported EC50, NSP14 MTase
[2] = target: T1, NSP14 MTase; details: read-out: KM of NSP14 MTase; method of initial rates, n=3; other substrate held constant at 200 μM
[3] = target: HNMT (Homo sapiens, UniProt P50135); test: HNMT specificity screen; type: biochemical
Sequence of UniProt P50135 (P50135 whole entry): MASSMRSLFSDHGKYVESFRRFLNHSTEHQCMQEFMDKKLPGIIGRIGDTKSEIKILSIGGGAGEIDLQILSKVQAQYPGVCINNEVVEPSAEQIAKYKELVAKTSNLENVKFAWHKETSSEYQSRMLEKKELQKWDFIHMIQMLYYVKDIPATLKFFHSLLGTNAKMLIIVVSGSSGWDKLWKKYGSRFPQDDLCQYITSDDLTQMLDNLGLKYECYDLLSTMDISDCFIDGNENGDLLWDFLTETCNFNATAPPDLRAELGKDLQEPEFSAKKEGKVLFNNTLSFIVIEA

[4] = target: T1, NSP14 MTase; type: biochemical, SARS-CoV-2

Structure (SMILES): CCC(Sc1nnc2c(n1)[nH]c1ccccc12)C(=O)N1c2ccccc2Sc2ccccc21 (stereo not shown) [Inauzhin]
- activity toward NSP14 MTase [1]: micromolar activity
- EC50 [1]: 23 µM

Structure (SMILES): Nc1nc2c(ncn2[C@@H]2O[C@H](COP(=O)(O)OP(=O)(O)OP(=O)(O)OC[C@H]3O[C@@H](n4cnc5c(=O)[nH]c(N)nc54)[C@H](O)[C@@H]3O)[C@@H](O)[C@H]2O)c(=O)[nH]1 [GpppG]
- Km [2]: 1040 ± 140 nM

Structure (SMILES): N#Cc1ccc(N2N=C3c4ccc(C(=O)O)cc4CC[C@@H]3[C@@H]2C2CCCC2)cc1Cl [PF-03882845]
- activity toward NSP14 MTase [1]: micromolar activity

Structure (SMILES): Nc1nc(OCc2cc(Br)cs2)c2[nH]cnc2n1 [Lomeguetrib, Lomeguatrib]
- activity toward NSP14 MTase [1]: micromolar activity
- EC50 [1]: 59.8 µM

Structure (SMILES): CC(=O)N1CCN(c2ccc(C(=O)N3CCN(Cc4ccccc4)CC3)nn2)C(=O)C1 [NCGC00537446]
- potency difference between NSP14 MTase and HNMT [3]: greater than 10 fold
- effect on VMAX, GpppG MTase substrate [4]: some influence
- effect on VMAX, SAM [4]: no influence
- increase of KM for SAM [4]: roughly 2 fold
- mechanism of inhibition with respect to GpppG [4]: noncompetitive
- effect on KM for GpppG MTase substrate ([4]; SAM constant at 100 μM, 0 to 10 μM compound): not significantly influenced

Structure (SMILES): C[S+](CC[C@H](N)C(=O)[O-])C[C@H]1O[C@@H](n2cnc3c(N)ncnc32)[C@H](O)[C@@H]1O (stereo partly shown) [SAM]
- Km [2]: 2650 ± 270 nM
